The whole screen tested about 310,000 compounds, of which about 2,200 (0.71%) showed an effect of 50% or more. The effect is printed as a negative number. The list shows a part of the results.
biological target: human ether-à-go-go-related gene (hERG) potassium channel (human, UniProt Q12809); assay: primary screen, population patch clamp on CHO cells stably expressing hERG
Sequence (Q12809 whole entry, looked up): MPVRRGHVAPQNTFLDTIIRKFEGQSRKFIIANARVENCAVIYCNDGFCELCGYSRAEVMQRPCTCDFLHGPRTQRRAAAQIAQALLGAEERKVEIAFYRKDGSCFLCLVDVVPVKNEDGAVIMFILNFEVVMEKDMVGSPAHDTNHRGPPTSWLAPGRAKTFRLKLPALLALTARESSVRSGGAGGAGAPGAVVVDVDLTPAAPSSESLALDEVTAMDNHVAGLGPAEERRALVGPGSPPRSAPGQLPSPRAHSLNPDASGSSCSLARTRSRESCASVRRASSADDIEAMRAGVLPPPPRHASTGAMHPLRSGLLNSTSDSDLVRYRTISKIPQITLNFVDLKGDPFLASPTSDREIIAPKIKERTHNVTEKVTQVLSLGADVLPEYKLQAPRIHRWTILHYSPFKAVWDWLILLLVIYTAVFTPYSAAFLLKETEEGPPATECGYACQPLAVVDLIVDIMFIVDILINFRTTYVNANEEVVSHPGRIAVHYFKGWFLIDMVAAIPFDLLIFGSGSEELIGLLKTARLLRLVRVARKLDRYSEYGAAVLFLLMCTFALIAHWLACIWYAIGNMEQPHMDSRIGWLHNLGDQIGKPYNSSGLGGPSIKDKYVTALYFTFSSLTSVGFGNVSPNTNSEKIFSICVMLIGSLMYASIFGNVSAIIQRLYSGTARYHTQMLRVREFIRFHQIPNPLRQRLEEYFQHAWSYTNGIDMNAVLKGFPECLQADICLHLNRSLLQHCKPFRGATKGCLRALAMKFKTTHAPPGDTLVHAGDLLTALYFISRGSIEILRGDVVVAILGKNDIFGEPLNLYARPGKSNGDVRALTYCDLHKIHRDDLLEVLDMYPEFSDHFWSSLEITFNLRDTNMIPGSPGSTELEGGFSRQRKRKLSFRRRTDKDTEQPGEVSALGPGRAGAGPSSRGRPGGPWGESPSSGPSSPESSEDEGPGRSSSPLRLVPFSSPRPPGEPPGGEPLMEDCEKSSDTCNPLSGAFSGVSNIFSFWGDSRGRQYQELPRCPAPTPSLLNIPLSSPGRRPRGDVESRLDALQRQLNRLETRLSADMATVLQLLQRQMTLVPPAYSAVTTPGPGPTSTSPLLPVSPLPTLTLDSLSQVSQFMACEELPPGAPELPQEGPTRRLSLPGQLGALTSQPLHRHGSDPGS

In order of rising “hERG current change (%, negative = inhibition) at 1uM” value:
1. c1ccc(CSc2nnc(-c3cccs3)n2Cc2ccco2)cc1  -8.44%
2. CCCC(=O)N(c1ccc(OCC)cc1)C1C=CS(=O)(=O)C1 (stereo not drawn)  -7.3%
3. C=CCc1ccc(OCCCNCc2ccccc2)c(OC)c1.O=C(O)C(=O)O  -6.92%
4. CCOc1ccc(C(=O)N(CN2CCCC2=O)c2ccc(C)cc2)cc1  -5.23%
5. Cc1ccc(C(=O)CCC(=O)OCc2nnc(-c3ccccc3)o2)cc1  -3.62%
6. O=C(CSc1ccc(Cl)cc1)NC(=O)c1ccccc1  -3.31%
7. Cc1cccnc1NC(=O)c1cccc(S(=O)(=O)N2CCN(c3ccccc3)CC2)c1  -2.82%
8. CCOC(OCC)c1cn(Cc2ccc(C(=O)c3ccccc3)cc2)nn1  -1.82%
9. CCOC(=O)C1CCN(C(=O)Cc2cccs2)CC1  -1.77%
10. CC(NC(=O)C(=O)N1CCCCC1)C(c1cccs1)N1CCN(c2ccccc2)CC1 (stereo not drawn)  -0.832%
11. Cc1ccc(Cl)cc1N1CCN(C(=O)C2(S(=O)(=O)c3ccc(Cl)cc3)CC2)CC1  0.696%
12. Cc1onc(-c2c(Cl)cccc2Cl)c1C(=O)NCCc1ccncc1  1.09%
13. COc1cccc(OC)c1C(=O)Nc1ccccc1N1CCCCC1  1.39%
14. C=CCNC(=S)N1CCN(C2CCCCC2)CC1  1.64%
15. CCC(=O)Nc1ccc(C(=O)N2CCN(C(=O)c3ccco3)CC2)cc1  1.93%
16. COc1ccc(CNC(=O)CN2c3ccccc3S(=O)(=O)c3ccccc32)cc1  2.07%
17. CCCCOC(=O)Nc1nnc(CCOCC)s1  2.39%
18. Cc1ccc(OCCOCCOc2ccc(Br)cc2/C=N\NC(=O)c2ccncc2)cc1  3.41%
19. CCNCc1cc(Cl)cc(OC)c1OC(C)C.Cl  4.48%
20. CCOP(=O)(C#CC(C)(C)C)C(O)(c1ccccc1)C(F)(F)F (stereo not drawn)  4.82%
21. Cl.Clc1ccc(CNCC2CCCO2)c(Cl)c1 (stereo not drawn)  4.99%
22. Cc1ccc(/C=N/NS(=O)(=O)c2ccccc2)o1  5.5%
23. C=CCCCCCCCCC(=O)Nc1c[nH]c(=O)[nH]c1=O  5.88%
24. CSc1nc(-c2ccco2)nn1C(=O)c1ccc(C)cc1  6.5%
25. CCC(=O)Nc1nc2ccc3nc(C)sc3c2s1  6.59%
26. CC(C)Cn1c(N)c(C(=O)COC(=O)CN2C(=O)C3CC=CCC3C2=O)c(=O)n(C)c1=O (stereo not drawn)  6.92%
27. Cc1noc(C)c1S(=O)(=O)Nc1ccc(C(=O)N2CCc3ccccc3C2)cc1  7.27%
28. CCC(=O)Nc1c(C)nn(-c2ccc(C)c(C)c2)c1C  7.45%
29. O=C(CCC1CCCN(C(=O)C2CCCC2)C1)NCc1ccc(F)c(F)c1 (stereo not drawn)  7.69%
30. Cc1nn(C)c(C(=O)N2CCN(C(=O)c3ccco3)CC2)c1[N+](=O)[O-]  8.09%
31. O=C1NC(=O)N(c2cccc(Br)c2)C(=O)/C1=C/c1ccsc1  8.15%
32. CCNC(=O)CN(c1ccc(CC)cc1)S(C)(=O)=O  9.01%
33. Cn1c([O-])c(Cc2ccc(OCc3ccccc3)cc2)c(=O)n(C)c1=O.[NH4+]  9.15%
34. C=CCn1c(SCc2cc(=O)n3ccsc3n2)nc2ccccc2c1=O  9.84%
35. Cc1ccc(-c2cc3c(n2-c2ccc(C(=O)O)cc2)CCCC3=O)cc1  10.4%
36. C#CCNC(=O)C1=C[C@@H](c2ccc(C#C)cc2)C[C@@H](OCc2ccc(CO)cc2)O1  10.9%
37. Cc1ccc(NC(=O)c2cc(=O)c3ccccc3o2)c(C)c1  11%
38. CCOC(=O)CN1C(=O)S/C(=C\c2ccc(-c3cccc(C(=O)O)c3C)o2)C1=O  11.6%
39. O=C(CN(C(=O)CCC(=O)Nc1ccccn1)c1ccc2c(c1)OCO2)NCc1ccc(F)cc1  12%
40. COc1ccc(N(CC(=O)NCCSc2ccccc2)S(=O)(=O)c2ccccc2)cc1  12%
41. COc1ccc(CCNS(=O)(=O)c2ccc(-c3ccc(=O)[nH]n3)o2)cc1OC  12.4%
42. Cc1noc(C)c1CSc1ccc(Br)cc1  12.5%
43. Cc1cc(/C=C2\C(=O)NC(=O)N(c3ccccc3)C2=O)c(C)n1-c1ccc(C(=O)O)c(Cl)c1  13.2%
44. Nc1nonc1-n1nnc(C(=O)N/N=C/c2ccccc2F)c1-c1cccs1  13.3%
45. NC(=O)c1ccsc1NC(=O)COC(=O)COc1ccccc1F  13.5%
46. CCN(CC)C(=O)C1(P(=O)(c2ccccc2)c2ccccc2)CCC1  14.1%
47. COc1ccccc1NC(=O)c1cnc2n(c1=O)CCS2  14.6%
48. COc1ccccc1NS(=O)(=O)c1ccc(NC(=O)CCNC(=O)c2ccco2)cc1  14.7%
49. Cc1ccc(S(=O)(=O)N(CC(=O)N/N=C/c2ccccc2C(=O)O)c2cc(Cl)cc(Cl)c2)cc1  14.9%
50. Cc1ccccc1/C=N/N1C(=O)CSC1=S  15.9%
51. CCCCn1c(N)c(N(CCOC)C(=O)c2cccc(OCc3ccccc3)c2)c(=O)[nH]c1=O  16.6%
52. Cc1[nH][nH]c(=O)c1C(c1ccc(-c2ccc(F)cc2)o1)c1c(C)[nH][nH]c1=O  17.5%
53. Cc1ccc(C(=O)Nc2ccn(C)n2)cc1  20.7%
54. Cc1cc(C)n2cc(CSc3nncn3C)nc2n1  21.5%
55. COCCCNC(=O)CN(c1cc([N+](=O)[O-])ccc1OC)S(C)(=O)=O  21.6%
56. Oc1ccc(Cl)cc1CNCc1ccc(Cl)cc1  21.9%
57. CN1C/C(=C/c2ccncc2)C(=O)/C(=C/c2ccncc2)C1  25.8%

From paper PMC4336329 (PLoS ONE, 2015)
